Measured values published in publication PMC4336329 (PLoS ONE, 2015).
The campaign covered roughly 310,000 compounds. About 2,200 (0.71%) showed an effect of 50% or more. The effect is printed as a negative number. Some of the results follow.

Target: human ether-à-go-go-related gene (hERG) potassium channel (human, UniProt Q12809)
Assay: primary screen, population patch clamp on CHO cells stably expressing hERG

human ether-à-go-go-related gene (hERG) potassium channel, sequence (Q12809 whole entry, looked up): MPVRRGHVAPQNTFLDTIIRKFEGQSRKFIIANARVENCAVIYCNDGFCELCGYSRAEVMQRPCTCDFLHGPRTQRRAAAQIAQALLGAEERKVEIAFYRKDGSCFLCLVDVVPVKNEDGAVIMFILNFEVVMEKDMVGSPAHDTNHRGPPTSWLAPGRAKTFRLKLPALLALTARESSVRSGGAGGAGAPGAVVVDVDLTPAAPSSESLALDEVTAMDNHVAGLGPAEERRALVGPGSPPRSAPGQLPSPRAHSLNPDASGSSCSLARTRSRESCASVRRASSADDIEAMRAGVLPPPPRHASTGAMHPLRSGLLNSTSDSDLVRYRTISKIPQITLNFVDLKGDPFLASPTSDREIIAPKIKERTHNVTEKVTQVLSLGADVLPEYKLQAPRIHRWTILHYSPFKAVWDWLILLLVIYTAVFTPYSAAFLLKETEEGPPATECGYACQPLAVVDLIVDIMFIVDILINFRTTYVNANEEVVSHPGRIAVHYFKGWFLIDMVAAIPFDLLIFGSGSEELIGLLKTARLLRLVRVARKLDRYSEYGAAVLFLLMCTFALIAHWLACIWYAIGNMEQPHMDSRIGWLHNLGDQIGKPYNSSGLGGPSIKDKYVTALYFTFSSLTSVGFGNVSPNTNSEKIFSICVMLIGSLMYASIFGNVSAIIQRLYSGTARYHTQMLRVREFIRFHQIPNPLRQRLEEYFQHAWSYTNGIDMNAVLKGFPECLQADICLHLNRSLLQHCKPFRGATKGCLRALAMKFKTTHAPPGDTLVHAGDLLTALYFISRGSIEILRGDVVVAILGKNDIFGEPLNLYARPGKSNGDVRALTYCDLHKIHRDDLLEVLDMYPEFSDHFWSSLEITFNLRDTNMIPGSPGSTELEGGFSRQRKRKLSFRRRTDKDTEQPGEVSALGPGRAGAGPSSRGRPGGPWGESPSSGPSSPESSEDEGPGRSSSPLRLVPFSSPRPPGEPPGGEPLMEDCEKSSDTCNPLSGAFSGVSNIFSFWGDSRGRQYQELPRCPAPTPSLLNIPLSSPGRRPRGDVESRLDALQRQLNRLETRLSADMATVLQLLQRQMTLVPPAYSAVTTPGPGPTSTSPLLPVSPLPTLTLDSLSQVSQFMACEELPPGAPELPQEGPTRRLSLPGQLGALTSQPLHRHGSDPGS

Structure (SMILES) | hERG current change (%, negative = inhibition) at 1uM [%]
Cn1nccc1C(=O)NC1CCN(Cc2ccccc2)CC1 | 3.26
COc1ccc(Br)cc1/C=N/NC(=O)Cn1nnnc1N | 15.5
CCCc1cc(C(=O)Nc2cccc(Cl)c2C)no1 | 1.64
Cc1ccc(C(=O)CC(c2cccs2)S(=O)(=O)c2ccc(C)cc2)cc1 (centres unmarked) | 5.62
Cc1ccc(Nc2nc3nonc3nc2N(C)C)cc1 | 7.6
Cc1ccc(NC(=O)CCSc2ccccn2)cc1 | 5.81
Cc1cc(Cl)ccc1NNC(=O)c1cccs1 | 11
COc1ccc(-c2nc(CN3CCCC(C(=O)NC4CCCC4)C3)c(C)o2)cc1 (centres unmarked) | -53.5
CCCNC(=S)Nc1cc2oc3ccccc3c2cc1OC | 7.75
Cc1c(O)ccc2c(CN3CCN(Cc4ccccc4)CC3)cc(=O)oc12 | -7.98
COC(=O)c1c(NC(=O)CSc2n[nH]c(N)n2)sc(C)c1C | 10.3
CCN(C(=O)COC(=O)c1ccc(N2C(=O)c3ccccc3C2=O)cc1)C1CCS(=O)(=O)C1 (centres unmarked) | 16.5
CC(=O)Nc1ccc(Nc2nc(-c3ccccc3)nc3ccccc23)cc1 | 4.41
COC(=O)c1cn[nH]c1NC(=S)Nc1ccc(C)cc1Cl | 7.19
Cc1ccccc1NC(=O)COC(=O)Cc1ccsc1 | 7.87
O=C(NC1C(=O)NNC1c1ccccc1)c1ccc(F)cc1 (centres unmarked) | 16.4
Cc1ccc(OCC(=O)Nc2ccc(S(=O)(=O)N3CCCC3)cc2)cc1 | 17
CC(C)C(O)(C#CCN1CCCCC1)C(C)C | -3.07
CCc1nc(SCc2ccc(C(=O)OC)o2)c2c(=O)n(C)c(=O)n(C)c2n1 | 7.13
CCCN(CCC)CCCNC(=O)C(NS(=O)(=O)c1ccc2c(c1)CCC(=O)N2)c1ccccc1 (centres unmarked) | 14.5
CC(C)c1ccc(S(=O)(=O)N2CCN(C(=O)C3CCCC3)CC2)cc1 | 7.55
CC(=O)NC(Cc1ccccc1)C(=O)OCC(=O)c1ccc(Br)cc1 (centres unmarked) | 11.8
CNS(=O)(=O)c1cc(NC(=O)c2cnc(SC)n2-c2ccccc2)ccc1C | 16.3

Structure (SMILES) | hERG current change (%, negative = inhibition) at 1uM [%]
Clc1cccc(CN2CCC(Cc3ccccc3)CC2)c1 | -0.686
Cc1ccc([N+](=O)[O-])cc1Nc1nc(N2CCOCC2)nc(N2CCOCC2)n1 | 2.41
CCC(NC(=S)NCc1ccc(F)cc1)c1ccc(C(C)C)cc1 (centres unmarked) | 18.2
CC1CCC2(CC1)NC(=O)N(CC(=O)N1CCc3ccccc3C1)C2=O (centres unmarked) | 18.1
CCCC1(C(=O)OCC)NC(c2ccco2)C2C(=O)N(C)C(=O)C21 (centres unmarked) | 1.11
CCN(CC)C1CC(=O)N(c2cccc(Cl)c2)C1=O (centres unmarked) | 19.1
Cc1ccc(-c2nnn(CC(=O)N(CCCO)C(C(=O)NC3CCCC3)c3ccc(Cl)cc3)n2)o1 (centres unmarked) | 11.7
CC(=O)Nc1cccc(OCc2ccc(S(=O)(=O)Cc3ccccc3)cc2)c1 | 0.658
O=C(Nc1cc(S(=O)(=O)N2CCOCC2)ccc1N1CCCCC1)c1ccccc1 | 4.65
O=C(Cn1nnc(-c2ccccc2)n1)NCc1ccc2c(c1)OCO2 | 10.2
O=C(c1cnccn1)N1CCCC(N2CCN(c3cccc(Cl)c3)CC2)C1 (centres unmarked) | 2.94
CC1CCC(NC(=O)CN2CCCN(Cc3ccc(F)cc3Cl)C2=O)CC1 (centres unmarked) | 8.34
NC(=O)COc1ccc(C(=O)NCC2(N3CCOCC3)CCCCC2)cc1 | 16
O=S(=O)(c1ccc(F)cc1)N1CCN(Cc2cc3c(cc2Br)OCCO3)CC1 | -1.54
CCCCn1c(N)c(N(CCC(C)C)C(=O)c2ccc([N+](=O)[O-])o2)c(=O)[nH]c1=O | 8.25
COC(=O)c1c[nH]n2c(=O)cc(C)nc12 | 7.66
CN(CC(=O)NC1CCCCCC1)S(=O)(=O)c1ccc(F)cc1 | 10.4
Nc1nc(CN2CCN(c3ccc(F)cc3)CC2)nc(N2CCCc3ccccc32)n1 | 3.89
COc1ccc2c(c1)CCc1cn3ncc(C#N)c3nc1-2 | 3.26
Cc1ccc(NC(=O)CSc2nnc(-c3ccncc3)o2)cc1 | 14.6
Cc1noc(NS(=O)(=O)c2ccc(NC(=O)CSc3nc4ccccc4s3)cc2)c1C | 4.66
CCCCc1nnc2c(N(C)S(=O)(=O)c3ccc(C)cc3)nc3ccccc3n12 | 3.84
O=C(CCN1C(=O)c2ccccc2C1=O)N1CCN(Cc2ccc(Cl)cc2Cl)CC1 | -6.95

Structure (SMILES) | hERG current change (%, negative = inhibition) at 1uM [%]
COc1cc(/C=C(/C#N)c2nc3ccccc3[nH]2)ccc1OCC(=O)Nc1ccccc1C | 14.9
CCc1nn(CCCN2CCN(c3cccc(Cl)c3)CC2)c(=O)n1CCOc1ccccc1.Cl | -13.2
Cl.OCCN1C2=NCCCN2c2ccccc21 | 10.3
N#C/C(=C\c1ccc(C#N)cc1)C(=O)c1ccccc1 | 12.3
CCN(CC)CCC(c1ccc2c(c1)OCO2)c1c(OC)cc(OC)c2ccc(=O)oc12 (centres unmarked) | -18.1
CCN1CCN(S(=O)(=O)c2cccs2)CC1 | 10.3
Cc1ccc(S(=O)(=O)CNC(=S)c2cccc(C)c2)cc1 | -8.28
O=C(CCN1CCN(c2ccccc2)CC1)N/N=C/c1ccc([N+](=O)[O-])o1 | -58.5
Cc1cccc(NC(=O)CN2CCN(C(=O)C3CCC3)CC2)c1C | -7.56
COc1cc2cc(/C=C/C(=O)c3ccco3)c(Cl)nc2cc1OC | 14.6
Cn1c(=O)c2c(ncn2CC(=O)N2CCN(c3ccc(F)cc3)CC2)n(C)c1=O | -0.183
O=C(COC(=O)Cc1ccc(Cl)cc1Cl)Nc1ccccc1OC(F)F | 12.8
N#CC(C#N)=Cc1ccc(-c2ccc(S(=O)(=O)N=C(N)N)cc2)o1 | 1.33
Oc1cc(O)c2c(c1)O[C@H](c1ccc(O)c(O)c1)[C@H](O)C2 | -1.21
COc1ccccc1Cn1c(=S)[nH]c2ccc(Br)cc2c1=O | 13.6
O=C(Cn1nc(C(=O)O)c2ccccc2c1=O)Nc1nc(-c2ccccc2)cs1 | 9.78
O=[N+]([O-])c1ccccc1OCCOc1ccccc1[N+](=O)[O-] | 11.7
COc1ccc(OC)c(CN(CCN2CCOCC2)C(=O)Nc2ccccc2)c1 | 1.66
CCOC(=O)c1c(-c2ccc(C)o2)csc1N | 3.32
CC(Oc1ccc(Br)cc1)C(=O)NC1CCCCCC1 (centres unmarked) | -2.05
COc1ccc(CN2CCN(C(=O)c3cccs3)CC2)c(OC)c1OC | 10.3
CCN1CCCC1CNC(=O)C(=O)NC (centres unmarked) | 4.02
COc1cc(OC)cc(-c2c(-c3cccs3)c3cc(-c4ccc(OC)c(F)c4)ccc3n2C)c1 | 16

Structure (SMILES) | hERG current change (%, negative = inhibition) at 1uM [%]
CC1=NN(C(N)=S)C(=O)C1N=Nc1ccccc1C (centres unmarked) | 26.9
CCOC(=O)C(O)(c1ccc(NC(=S)NC(=O)c2ccc(Cl)cc2Cl)c(C)c1)C(F)(F)F (centres unmarked) | 23
CCn1cc(C(=O)Nc2ccc(C)c([N+](=O)[O-])c2)cn1 | 11.3
O=C(COC(=O)C(O)c1ccccc1)NC12CC3CC(CC(C3)C1)C2 (centres unmarked) | -2.68
Cc1cc(NC(=O)c2cnn3c(C(F)(F)F)cc(-c4ccc(Br)cc4)nc23)no1 | 9.51
COc1ccccc1NC(=O)CSc1nnc(NC(=O)c2ccco2)s1 | 5.29
COc1ccccc1C(=O)Nc1ccccc1C(=O)Nc1ccccc1 | 15.2
O=C(O)COc1ccccc1/C=N/NC(=O)CSc1nc2ccccc2n1Cc1ccccc1 | 7.67
Cc1cc(C)cc(COc2ccc3c(C)c(CC(=O)O)c(=O)oc3c2C)c1 | -3.52
Cc1ccc(S(=O)(=O)Nc2ccc(-c3nnc(SCC#N)n3C)cc2)cc1 | 1.27
CCOC(=O)c1ccc(NC(=O)N2CCN(c3ccccc3OC)CC2)cc1 | 4.65
O=C(/C=C/c1ccco1)N(Cc1cccc(Cl)c1)C1CCS(=O)(=O)C1 (centres unmarked) | 14.2
COc1cc(CC(=O)O)ccc1O | -0.93
CCNC(=O)CC1C(=O)N(CC)C(=S)N1NC(=O)c1ccccc1 (centres unmarked) | 12.6
COc1ccc(N2C(=O)/C(=C/c3ccc([N+](=O)[O-])cc3)C=C2c2ccccc2)cc1 | 0.667
COc1ccc(NC(=O)CN(C)S(=O)(=O)c2cccc3nsnc23)cc1OC | 2.99
C=CCNC(=S)NNC(=O)c1csc(CC)c1 | 6.13
CCN(CC)CCCN(C(C)=O)c1nc(-c2cc(OC)ccc2OC)cs1.Cl | -51
COC(=O)c1c(-c2ccc(OC)c(OC)c2)csc1N | 17.5
Cc1ccnc(NC(=O)c2ccc(NC(=O)CC3SC(N4CCCC4)=NC3=O)cc2)c1 (centres unmarked) | 9.92
